In PubChem BioAssay AID1460 (National Center for Advancing Translational Sciences (NCATS), 2008):
About 5,800 (2.1%) of roughly 270,000 compounds were called active. Inconclusive results, whose numbers are uncertain, are shown with a selection of clear calls. Calls come from the whole dose curve; as a rule, active = well fitted inhibition curve with a large enough effect; inconclusive = small, poorly fitted or top-dose-only effect; inactive = flat fitted curve, though single readings scatter. A potency beside an inconclusive call is a rough fit, not a confirmed value.

Molecular target: Microtubule-associated protein tau (Homo sapiens) (UniProt P10636)
Chain of UniProt P10636 (P10636 whole entry, looked up): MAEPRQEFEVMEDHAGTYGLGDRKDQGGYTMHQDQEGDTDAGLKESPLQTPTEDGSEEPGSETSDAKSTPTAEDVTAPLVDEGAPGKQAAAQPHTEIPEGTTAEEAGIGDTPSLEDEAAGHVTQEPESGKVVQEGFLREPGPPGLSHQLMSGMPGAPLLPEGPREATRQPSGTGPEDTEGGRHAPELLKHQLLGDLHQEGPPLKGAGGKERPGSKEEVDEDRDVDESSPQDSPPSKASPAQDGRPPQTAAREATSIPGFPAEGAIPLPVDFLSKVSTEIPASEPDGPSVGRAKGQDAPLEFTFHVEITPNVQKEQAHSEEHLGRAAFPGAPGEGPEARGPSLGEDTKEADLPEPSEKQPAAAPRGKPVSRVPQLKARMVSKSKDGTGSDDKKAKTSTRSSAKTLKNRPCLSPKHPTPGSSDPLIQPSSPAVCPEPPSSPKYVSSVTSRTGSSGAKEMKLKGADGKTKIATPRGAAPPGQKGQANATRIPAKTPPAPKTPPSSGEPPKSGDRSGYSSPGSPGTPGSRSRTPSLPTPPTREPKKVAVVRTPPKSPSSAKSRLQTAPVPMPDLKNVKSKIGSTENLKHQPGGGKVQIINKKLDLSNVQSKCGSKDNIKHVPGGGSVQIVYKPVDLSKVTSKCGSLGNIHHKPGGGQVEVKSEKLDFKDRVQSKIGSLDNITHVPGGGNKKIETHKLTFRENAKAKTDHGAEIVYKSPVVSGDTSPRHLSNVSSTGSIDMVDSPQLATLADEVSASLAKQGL
Experiment: qHTS for Inhibitors of Tau Fibril Formation, Thioflavin T Binding; note: nearly all actives have a fitted effect of over 55% in size
Settings: recombinant tau K18 P301L (four-repeat tau fragment), heparin-induced fibrillization, ThT fluorescence; series mostly up to 57.4 µM
Procedure, shortened: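 Recombinant human tau K18 fragment […] carrying P301L, 15 uM unlabeled plus 0.24 uM Alexa 594-labeled, was fibrillized with 20 uM heparin in 100 mM sodium acetate pH 7 for 6 hr at 37 C; 30 uM ThT fluorescence read after 1 hr.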
Potency is the fitted concentration of half-maximal effect; tags give direction and shape of the fitted curve.

Row | SMILES | Potency
1 | CCC(=O)c1ccc(OCC(O)CN2CCN(c3ccc(F)cc3)CC2)cc1 (centres undefined) | inconclusive: 1.41 µM [inhibitor, full curve]
2 | Cc1ccc(-c2csc(C3C(N)=NC(S)=C(C#N)C34CCCCC4)n2)cc1 (centres undefined) | inconclusive: 22.4 µM [inhibitor, partial curve]
3 | CC1(C)CC(=O)C2=C(C1)OC(N)=C(C#N)C21CCN(C(=O)OCc2ccccc2)CC1 | inconclusive: 39.8 µM [inhibitor, single point]
4 | Cn1c(SCC(=O)N/N=C/C=C/c2ccco2)nc2ccccc21 | inconclusive: 25.1 µM [inhibitor, partial curve]
5 | COc1ccc2c(c1)CCc1c(C(=O)Nc3c(C)n(C)n(-c4ccccc4)c3=O)noc1-2 | inconclusive: 17.8 µM [inhibitor, partial curve]
6 | FC(F)(F)c1ccccc1CN1CCN(C2CCCCCC2)CC1 | inactive
7 | O=[N+]([O-])C(=C1Nc2ccccc2N1)C(Cl)=C(Cl)Cl | inconclusive: 15.8 µM [inhibitor, partial curve, poor fit]
8 | CCn1c(O)c(N=NC(=S)NCC2CCCO2)c2ccccc21 (centres undefined) | inconclusive: 35.5 µM [inhibitor, single point]
9 | O=c1c2oc3ccccc3c2n(Cc2cccc(Cl)c2)c(=O)n1Cc1ccco1 | inactive
10 | O=C(NCSc1ccnc(SCNC(=O)c2ccccc2)n1)c1ccccc1 | inactive
11 | Cc1cc(-c2nc3ncccc3o2)ccc1NC(=O)COc1ccccc1C | inconclusive: 8.91 µM [inhibitor, partial curve]
12 | O=C(NCC1CCCO1)c1coc2nc3ccccc3nc12 (centres undefined) | inactive
13 | CCOC(=O)c1ccccc1NC(=O)CSc1ccc(-c2cccs2)nn1 | inconclusive: 10 µM [inhibitor, partial curve]
14 | COc1ccc(/C=N/Nc2nc(-c3cccnc3)nc3ccccc23)c(OC)c1 | inconclusive: 11.2 µM [inhibitor, partial curve, poor fit]
15 | CCOc1ccc(NC(=O)COC(=O)CCCc2c[nH]c3ccccc23)cc1 | inconclusive: 17.8 µM [inhibitor, single point]
16 | Cc1cccn2c(=O)c3cc(C(=O)NCc4ccco4)c(=N)n(CCc4ccccc4)c3nc12 | inconclusive: 25.1 µM [inhibitor, single point]
17 | COC(=O)CSc1ccc(S(=O)(=O)N2CCCCCC2)cc1[N+](=O)[O-] | inactive
18 | S=C1NC2=C(CCCC2=C2SCCS2)C(c2ccccc2)N1 (centres undefined) | inactive
19 | CC(C)c1ccc(NC(=O)c2ccc(Cn3nc(N4CCN(c5ccccc5)CC4)ccc3=O)o2)cc1 | inconclusive: 17.8 µM [inhibitor, partial curve]
20 | O=C(CCNC(=O)Cn1ccc2ccccc2c1=O)NCCCN1CCN(c2ccccc2F)CC1 | inconclusive: 4.47 µM [inhibitor, single point]
21 | CCOc1ccc(C(=O)OCc2nnc(-c3cccs3)o2)cc1OC | inconclusive: 15.8 µM [inhibitor, partial curve]
22 | CC(C)(C)NC(=S)N/N=C/c1c(Cl)cccc1Cl | inactive

Row | SMILES | Potency
23 | CCN(CC)S(=O)(=O)c1ccc(C(=O)NCc2ccc3[nH]c4c(c3c2)CCCC4)cc1 | inactive
24 | COc1cccc(N2C(C(C)=O)=NN(c3ccccc3)C2c2ccc(N3CCOCC3)cc2)c1 (centres undefined) | inconclusive: 22.4 µM [inhibitor, partial curve]
25 | CCn1c(SCC(=O)N/N=C/C=C\c2ccco2)nc2ccccc21 | inconclusive: 20 µM [inhibitor, partial curve]
26 | Cn1c(=O)c(C(=O)COC(=O)c2cc(C(F)(F)F)nc3c(C(F)(F)F)cccc23)c(N)n(Cc2ccccc2)c1=O | inactive
27 | CC(C)(C)CN1CCNC(=O)C1CC(=O)NCCN1CCCc2ccccc21 (centres undefined) | inconclusive: 28.2 µM [inhibitor, single point]
28 | COc1ccc(/C=C2\CCc3ccccc3C2=O)cc1OC | inconclusive: 28.2 µM [inhibitor, partial curve]
29 | CCOC(=O)C1CCN(Cc2nc3ccc([N+](=O)[O-])cc3c(=O)n2-c2ccc(OC)cc2OC)CC1 | inconclusive: 17.8 µM [inhibitor, partial curve]
30 | COc1ccc(NC(=O)Nc2nnc(-c3ccccc3SCc3ccccc3)s2)cc1 | inactive
31 | c1ccc(-c2cc(N3CCCCCC3)n[nH]2)cc1 | inconclusive: 25.1 µM [inhibitor, partial curve]
32 | O=C(CN1CCN(c2ccccc2)CC1)c1ccc2cc[nH]c2c1 | inconclusive: 17.8 µM [inhibitor, partial curve]
33 | O=c1cc(-c2ccc(F)cc2)nc(SCc2nc(-c3cccc(C(F)(F)F)c3)no2)[nH]1 | inactive
34 | CC1CCCN(S(=O)(=O)c2ccc(N3CCCCS3(=O)=O)cc2)C1 (centres undefined) | inactive
35 | O=C(O)c1ccccc1Nc1ccc(OC(F)F)cc1 | inconclusive: 11.2 µM [inhibitor, partial curve]
36 | CCCN(CCC)CCNC(=O)c1sc2nc3n(c(=O)c2c1C)CCCCC3 | inactive
37 | O=c1c2c(nc3nc(Cc4ccccc4)[nH]n13)CCC2 | inactive
38 | CCN1CCN(C(c2ccccc2F)c2c(O)cc(C)n(CCOC)c2=O)CC1 (centres undefined) | inconclusive: 14.1 µM [inhibitor, partial curve]
39 | CC(=NCc1ccncc1)C1=C(O)c2ccccc2C1=O | inconclusive: 39.8 µM [inhibitor, single point]
40 | Cc1ccc(NS(=O)(=O)c2ccc3[nH]c4c(c3c2)CCCCCC4)cc1 | inactive
41 | CC(=O)Nc1ccc(S(=O)(=O)NCC(=O)OCC(=O)N2CCN(c3ccccc3)CC2)cc1 | inconclusive: 25.1 µM [inhibitor, single point]
42 | S=c1nc(-c2ccccc2)n(Cc2ccco2)c2c1CCCC2 | inconclusive: 22.4 µM [inhibitor, partial curve]
43 | C/C(=N\OCC(=O)Nc1c(C)cc(C)cc1C)c1ccc2c(c1)OCCO2 | inconclusive: 25.1 µM [inhibitor, single point]
44 | COc1cccc(NC(=O)Nc2cc(Cl)ccc2C)c1 | inactive
